# Laboratory results taken from PubChem BioAssay AID488969 (Vanderbilt High Throughput Screening Facility, 2010).
# Whole data set: some 110,000 compounds, median “z-score” near -0.1, cut for the highest 2% near 2. The list shows a part of the results. The source made the active and inactive calls.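 Rule for the calls: active = z-score in the third read window above 3 or below -3; inactive = the rest.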
# Biological target: Metabotropic glutamate receptor 8 (Rattus norvegicus) (UniProt P70579)
# Assay: rat mGluR8 modulators via GIRK flux, primary screen, cell-based, thallium flux, HTS (AID 488969)
# Details: HEK293 rat mGluR8, GIRK (G protein-gated inwardly rectifying potassium channel) thallium flux, FluoZin2; at 10 µM; stronger effect = higher value; submaximal glutamate (EC20) added with thallium
# Sequence of UniProt P70579 (P70579 whole entry, looked up): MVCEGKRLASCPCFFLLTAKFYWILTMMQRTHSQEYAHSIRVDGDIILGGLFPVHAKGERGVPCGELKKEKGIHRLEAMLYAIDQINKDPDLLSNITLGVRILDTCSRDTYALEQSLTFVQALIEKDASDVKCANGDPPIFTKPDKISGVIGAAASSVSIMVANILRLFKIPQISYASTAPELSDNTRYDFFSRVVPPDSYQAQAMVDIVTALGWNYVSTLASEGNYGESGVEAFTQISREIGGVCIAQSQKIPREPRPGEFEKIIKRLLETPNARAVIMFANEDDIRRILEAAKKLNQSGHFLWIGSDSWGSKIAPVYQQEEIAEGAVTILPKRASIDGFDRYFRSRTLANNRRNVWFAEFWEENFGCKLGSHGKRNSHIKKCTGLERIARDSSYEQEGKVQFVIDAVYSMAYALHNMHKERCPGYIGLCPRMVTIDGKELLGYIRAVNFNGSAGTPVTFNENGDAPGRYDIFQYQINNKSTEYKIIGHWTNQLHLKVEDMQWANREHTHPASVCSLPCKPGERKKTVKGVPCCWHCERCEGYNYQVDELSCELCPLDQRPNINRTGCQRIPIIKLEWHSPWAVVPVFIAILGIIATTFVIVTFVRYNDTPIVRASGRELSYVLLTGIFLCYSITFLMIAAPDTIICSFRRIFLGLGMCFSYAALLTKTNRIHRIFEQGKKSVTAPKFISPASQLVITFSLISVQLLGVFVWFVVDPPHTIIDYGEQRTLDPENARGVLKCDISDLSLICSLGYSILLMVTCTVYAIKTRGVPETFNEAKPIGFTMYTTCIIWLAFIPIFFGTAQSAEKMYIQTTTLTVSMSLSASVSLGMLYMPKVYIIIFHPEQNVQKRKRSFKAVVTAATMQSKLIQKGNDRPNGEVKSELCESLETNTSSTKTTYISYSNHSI
row,Compound,z-score
1,CCOC(=O)c1[nH]c2ccc(F)cc2c1NC(=O)Nc1ccccc1OC,-0.0906
2,CCOC(=O)/C=C1\Nc2ccccc2OC1=O,0.403
3,Cc1c(O)cc2n(c1=O)-c1ccccc1C2(C)C,-0.203
4,Cc1ccc(C(CC(=O)c2ccco2)SCCO)cc1 (stereo unspecified),0.0617
5,CCc1cc(C(c2cccc(OC)c2)N2CCOCC2)c(NC(=O)c2ccccc2)s1 (stereo unspecified),-2
6,Cn1c2c(c(=O)n(C)c1=O)CN(Cc1ccc3c(c1)OCO3)CN2,-0.144
7,CCN(CC)C(=O)N1CCc2ccccc2C1CN1C(=O)c2ccccc2C1=O (stereo unspecified),-0.00875
8,O=C(COC(=O)C1CCN(S(=O)(=O)c2cc([N+](=O)[O-])ccc2Cl)CC1)Nc1ncc(Cl)cc1Cl,-0.225
9,Cc1ccc(NC(=O)c2cc(N3C(=O)C=CC3=O)ccc2Cl)cc1C,-0.0892
10,Cc1ccc(-c2noc(CCC(=O)NCc3ccc4c(c3)OCO4)n2)cc1,-0.272
11,Cc1c(NS(=O)(=O)c2ccc3c(c2)CCN3C(=O)C2CC2)c(=O)n(-c2ccccc2)n1C,-0.246
12,CCCCCn1c(=O)[nH]c2cc(C(=O)NCCCN3CCCCC3)ccc2c1=O,0.476
13,CCOC(=O)C1CCN(S(=O)(=O)c2cc(Cl)c(C)cc2OC)CC1,0.166
14,O=C(NCc1ccncc1)c1ccc(Cl)c(S(=O)(=O)N2CCOCC2)c1,-0.146
15,COc1ccc(CC(=O)Nc2cccc(C(=O)O)c2C)cc1,1.16
16,O=C(O)c1cccc(Nc2ncnc3c2cnn3-c2ccccc2)c1,-1.14
17,O=C(CSc1nnc(-c2ccc(Br)o2)n1Cc1ccccc1)c1ccccc1F,-0.0977
18,CC(C)c1nc2oc3ccccc3c(=O)c2c(=O)n1-c1ccccc1,-1.85
19,CCCc1nc2c(=O)n(C)c(=O)[nH]c2n1C,-0.154
20,O=C(CSc1ccc2nnc(-c3ccccc3)n2n1)NCC1CCCO1 (stereo unspecified),-1.29
21,Cc1cc(C)n(C2CCCCC2OC(=O)c2ccccc2)n1 (stereo unspecified),-0.181
22,COc1ccc(S(=O)(=O)Nc2ccccc2C(=O)NCc2ccco2)cc1Br,0.0705
23,CC(NC(=O)c1cncc(Br)c1)c1ccc(S(N)(=O)=O)cc1 (stereo unspecified),0.0712

row,Compound,z-score
1,O=C(CSc1nc2c(sc3ccccc32)c(=O)n1Cc1ccco1)NCC1CCCO1 (stereo unspecified),-0.508
2,COC(=O)c1ccc(CNC(=O)CSc2nc3sc(C)c(C)c3c(=O)n2C)o1,-0.37
3,N#Cc1c(-c2ccc(Cl)cc2)c(C#N)c(=O)n(N)c1N,-0.392
4,CNC(=O)c1nn(-c2ccc(C)cc2)ccc1=O,0.09
5,Cc1cc(=O)n2[nH]c(C(=O)O)nc2n1,-0.282
6,Cc1ccc(-c2nn(CC(=O)Nc3cccnc3)c(=O)c3ccccc23)cc1,-0.291
7,Cc1ccc(C(=O)NC(=S)Nc2cc(C(F)(F)F)ccc2Cl)cc1,0.523
8,c1ccc(CCc2nn3c(Cn4cnc5ccccc54)nnc3s2)cc1,-0.199
9,CCOC(=O)C1=C(CSc2nccn2C)NC(=O)NC1c1cc(C)ccc1C (stereo unspecified),-0.122
10,CC(C)C(c1nnnn1C1CCCC1)N(C)C1CCCCC1 (stereo unspecified),-0.559
11,CN1CCN(C(=S)c2ccc([N+](=O)[O-])cc2)CC1,0.0346
12,COc1ccc(NC(=O)CSc2nnc(CNC(=O)c3ccco3)o2)c(OC)c1,0.213
13,COc1cc(C)nc2nc(SCc3ccccc3)nn12,0.185
14,CCS(=O)(=O)N1Cc2ccccc2CC1C(=O)NC(C)C12CC3CC(CC(C3)C1)C2 (stereo unspecified),-0.238
15,CCn1c(-c2ccco2)nc2ccccc21,-0.224
16,COC(=O)c1ccc(C(=O)OC)c(NC(=O)CSCc2ccccc2Br)c1,0.157
17,CCOCCOC(=O)C(C)Oc1ccc(Oc2ncc(Cl)cc2Cl)cc1 (stereo unspecified),-0.465
18,CN1C(=O)N(C)C(NC(=O)Nc2ccccc2)C1NC(=O)Nc1ccccc1 (stereo unspecified),0.955
19,COc1ccccc1OCC(O)Cn1c(=N)n(CCN2CCCCC2)c2ccccc21 (stereo unspecified),-0.0021
20,O=C(c1cc2ccccc2cc1OCC(O)CN1CCCCC1)N1CCCCC1 (stereo unspecified),-0.457
21,O=C(c1ccccc1)c1cccc(NC(=O)C2CC2)c1,-0.259
22,COc1ccc(Cc2nc(-c3ccccc3)no2)cc1,0.83
23,Cc1cc(C(=O)N2CCOCC2)n(-c2ccccc2)n1,0.0667

row,Compound,z-score
1,CC(=O)NCCc1nc2ccccc2n1Cc1ccccc1,-0.0359
2,COc1ccc2cc(C3(C)NC(=O)N(CC(=O)NCCC4=CCCCC4)C3=O)ccc2c1 (stereo unspecified),-0.227
3,Oc1ccccc1/C=N/Nc1cc(N2CCCC2)nc(N2CCCC2)n1,0.0189
4,C/C(=N\NC(=O)CC1N=C(Cc2ccccc2)NNC1=O)c1ccc(Cl)cc1Cl (stereo unspecified),0.303
5,O=C1CC(c2ccc(F)cc2)Cc2nc(NCC3CCCO3)ncc21 (stereo unspecified),-1.01
6,COc1ccc(S(=O)(=O)NCCC(=O)NC2CCCCCCC2)cc1,active: 3.82
7,COC(=O)c1ccc(-c2nc(-c3cccs3)no2)cc1,0.555
8,Cc1cc(N/C=C/C(=O)c2cccc3ccccc23)no1,-0.0252
9,COC(=O)CSc1nc2nc(C)cc(C)n2n1,-0.251
10,COC(=O)CSc1nnc(CCc2nc3ccccc3[nH]2)n1C,-0.318
11,CCOc1ccc(N2C(=O)CCC2=O)cc1,-0.0642
12,CCCN(Cc1cc2ccc(C)cc2[nH]c1=O)C(=O)c1ccccn1,-0.608
13,CS(=O)(=O)Nc1ccc(C(=O)N2CCCC2)cc1,-0.0758
14,Cc1ccc(N(C)C(=O)N2CCN(S(=O)(=O)c3ccc(C)cc3)CC2)cc1,-0.924
15,C=CCNC(=S)Nc1ccc2nc(C)c(C)nc2c1,0.0978
16,Cc1cc(=O)oc(C)c1C(=O)N1CCN(C(c2ccccc2)c2ccccc2)CC1,0.596
17,O=S1(=O)CCC(NCC2CCCO2)C1 (stereo unspecified),-0.277
18,Cc1nn(-c2ccccc2)c2c1C(c1cccs1)C(C#N)=C(N)O2 (stereo unspecified),-0.477
19,O=[N+]([O-])c1ccc(N2CCCCC2)cc1N1CCOCC1,-0.191
20,O=C(NC(=S)NC1CCSC1=O)c1ccccc1 (stereo unspecified),-0.149
21,O=C(CN1C(=O)c2ccccc2S1(=O)=O)N1CCN(Cc2ccc3c(c2)OCO3)CC1,-0.0376
22,COc1ccc(C2C(C#N)=C(N)N(c3cccnc3)C3=C2C(=O)CCC3)cc1Cn1cc([N+](=O)[O-])cn1 (stereo unspecified),-0.0646
23,CCc1c(C)sc(NC(=O)c2ccco2)c1C(=O)N1CCCCC1,-0.182

row,Compound,z-score
1,CCc1nnc(NC(=O)c2cccc(S(=O)(=O)N3CC(c4ccccc4)CC3=O)c2)s1 (stereo unspecified),-0.73
2,CCCCCOc1ccccc1C(=O)NCC(=O)O,-1.66
3,Fc1ccc(Nc2nc(-c3ccncc3)nc3ccccc23)cc1F,-0.000763
4,CCCCCCCCC(=O)NC(NC(=S)N1CCOCC1)C(Cl)(Cl)Cl (stereo unspecified),0.723
5,Cc1cccc(NC(=O)COc2ccccc2)c1,0.29
6,CCOC(=O)c1[nH]c2ccc(OC)cc2c1NC(=O)C(C)N1CCSCC1 (stereo unspecified),-0.859
7,CN1CCN(c2ccccc2NC(=O)c2ccc(OCc3ccccc3)cc2)CC1,-0.384
8,CCOC(=O)C(NC(=O)c1ccccc1Cl)(Nc1ccc(C)c(C)c1)C(F)(F)F (stereo unspecified),-1.8
9,O=C(N/N=C/c1cccn1-c1ccc([N+](=O)[O-])cc1)C(O)c1ccccc1 (stereo unspecified),0.181
10,COc1ccc(N2CCN(C(=O)COc3ccccc3)CC2)cc1,0.752
11,CCCn1c(Nc2ccccc2)nc2ccccc21,-0.0673
12,Cc1cc(NCCCn2ccnc2)n2nc(C)c(-c3ccc(Cl)cc3)c2n1,0.932
13,COCC(C)NC(=O)c1cc(-c2ccc(O)cc2)on1 (stereo unspecified),0.279
14,O=Cc1ccc(N2CCCCCC2)cc1,-0.151
15,Cc1ccc(-n2c(=O)[nH]c3c(C(N)=O)nc(CC(C)C)nc32)cc1,-0.0991
16,CC(C)OCCCNC(=O)c1cc(Sc2ccc(F)cc2)nc2ccccc12,1.28
17,CCOC(=O)N1CCN(C(=O)CSc2nnc(C3COc4ccccc4O3)o2)CC1 (stereo unspecified),0.978
18,Cc1ccc(-c2cc(=O)[nH]c3ccccc23)cc1,-1
19,O=C(NC12CC3CC(CC(C3)C1)C2)c1ccc(S(=O)(=O)N2CCOCC2)cc1,0.117
20,N=c1n(CC(=O)c2ccc([N+](=O)[O-])cc2)c2ccccc2n1Cc1ccccc1,0.833
21,CC(=O)Cc1nsc(NC(=O)c2cc(-c3ccccc3Cl)oc2C)n1,0.0117
22,O=C(Nc1cc(C(F)(F)F)ccc1-n1cncn1)c1ccc(Br)cc1,0.494
23,CCn1c(=N)n(CC(O)c2ccccc2)c2ccccc21 (stereo unspecified),1.55

row,Compound,z-score
1,Cc1cc(S(=O)(=O)N2CCCC2)ccc1OCC(=O)N1CCOCC1,0.0243
2,COc1ccc(-c2csc(/C(C#N)=C(\O)CSc3nccn3C)n2)cc1OC,0.0139
3,CCn1c(/N=C/c2ccccc2NS(=O)(=O)c2ccc(C)cc2)nc2ccccc21,0.0733
4,N#C[C@@H]1[C@@H]2C(=O)N(c3ccc4c(c3)OCCO4)C(=O)[C@@H]2C2c3ccccc3C=CN21 (stereo partly specified),-1.07
5,O=C(COC(=O)c1ccc2c(=O)n3c(nc2c1)CCC3)Nc1ccccc1F,-0.441
6,O=C1c2ccccc2NC(c2ccccn2)N1c1ccccc1F (stereo unspecified),-0.415
7,O=C(NC(Cc1c[nH]c2ccccc12)C(=O)Nc1ccc(F)cc1)c1cccs1 (stereo unspecified),-0.565
8,Fc1cccc(NC(=S)Nc2ccc(Br)cc2)c1,0.843
9,COc1cc(NS(=O)(=O)c2ccc(NC(C)=O)cc2)cc(OC)c1,-0.348
10,COc1cccc(-c2nnn(CC(=O)Nc3cc(OC)c(NC(=O)c4ccco4)cc3OC)n2)c1,-0.347
11,CCOc1ccc(Cl)cc1/C=N/O,-0.395
12,O=c1[nH]c(CSc2nnc(-c3ccccc3)n2C2CCCCC2)nc2ccccc12,-1.12
13,CCC1CCC2(CC1)NC(=O)N(CC(=O)c1c(C)[nH]c3ccccc13)C2=O (stereo unspecified),0.351
14,CCC(=O)N1c2ccccc2-c2nnc(SC)nc2OC1c1ccc(OC)c(OC)c1 (stereo unspecified),-0.654
15,N#CC1=C(c2ccccc2)/C(=C/c2ccccc2)OC1=O,1
16,CC(=O)N1CCc2cc(S(=O)(=O)NCCC(=O)NC3CCCc4ccccc43)ccc21 (stereo unspecified),-1.17
17,Cn1c(=O)n(C)c2cc(C(=O)Nc3ccc4c(c3)OCO4)ccc21,-0.0163
18,Cc1ccc(CN2C(=O)N/C(=C/c3cc(C)n(-c4ccccn4)c3C)C2=O)cc1,-0.247
19,Cc1ccc(C(=O)Nc2cc(C)c(OCC(=O)N3CCOCC3)c(C)c2)cc1,-0.0178
